# According to the supplement of paper PMC9046079:
# Where a name gives a salt, the structure may show the parent alone. ± gives the standard deviation of the averaged measurements. Some of the results follow.
# Tests used:
# [1] = tested on: murine small intestinal organoids (ENR+CD Paneth differentiation); test: cellular ATP (CellTiter-Glo 3D) relative to plate median (log10 fold change); higher = more viable cells; conditions: 6 d
# [2] = tested on: murine small intestinal organoids (ENR+CD Paneth differentiation); test: carbachol-stimulated secreted lysozyme activity relative to plate median (log10 fold change); higher = more Paneth cell lysozyme secretion; conditions: 6 d, carbachol 10 µM
# [3] = tested on: murine small intestinal organoids (ENR+CD Paneth differentiation); test: basal (non-stimulated) secreted lysozyme activity relative to plate median (log10 fold change); higher = more Paneth cell lysozyme secretion; conditions: 6 d
# 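Throughout, for basal (non-stimulated) secreted lysozyme activity relative to plate median: ISC-enriched organoid precursors grown as 2.5D pseudo-monolayer on Matrigel, compound given on day 0 and day 3, plate values LOESS-normalized before median fold change, three murine donors.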
# 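Throughout, for cellular ATP (CellTiter-Glo 3D) relative to plate median: 2.5D pseudo-monolayer culture of ISC-enriched organoids partly embedded atop Matrigel, compound added on day 0 and again on day 3, per-plate LOESS correction before median fold change.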
Compound,cellular ATP (log10) ([1]; 0.08 µM),cellular ATP (log10) ([1]; 0.4 µM),cellular ATP (log10) ([1]; 2 µM),cellular ATP (log10) ([1]; 10 µM),carbachol-stimulated secreted lysozyme activity (log10) ([2]; 0.08 µM),carbachol-stimulated secreted lysozyme activity (log10) ([2]; 0.4 µM),carbachol-stimulated secreted lysozyme activity (log10) ([2]; 2 µM),carbachol-stimulated secreted lysozyme activity (log10) ([2]; 10 µM),basal (log10) ([3]; 0.08 µM),basal (log10) ([3]; 0.4 µM),basal (log10) ([3]; 2 µM),basal (log10) ([3]; 10 µM)
CCc1c2c(nc3ccc(OC(=O)N4CCC(N5CCCCC5)CC4)cc13)-c1cc3c(c(=O)n1C2)COC(=O)[C@]3(O)CC [Irinotecan HCl Trihydrate],-0.0832 ± 0.052,-0.205 ± 0.1,-0.317 ± 0.11,-0.588 ± 0.15,-0.0465 ± 0.0011,-0.166 ± 0.19,-0.303 ± 0.15,-0.428 ± 0.046,-0.0186 ± 0.029,-0.0925 ± 0.046,-0.221 ± 0.059,-0.272 ± 0.075
O=C1[C@H](Cc2ccc(O)cc2)N2C(=O)CCN(C(=O)NCc3ccccc3)[C@H]2CN1Cc1cccc2ccccc12,0.104 ± 0.18,0.104 ± 0.089,0.143 ± 0.043,-0.416 ± 0.4,0.153 ± 0.21,0.25 ± 0.22,0.0055 ± 0.046,-0.112 ± 0.082,0.0372 ± 0.073,0.0369 ± 0.042,0.0454 ± 0.044,-0.125 ± 0.04
Cc1ccc(S(=O)(=O)c2ccc([N+](=O)[O-])o2)cc1,-0.0516 ± 0.32,-0.014 ± 0.09,-0.101 ± 0.023,-0.782 ± 0.78,0.0913 ± 0.25,0.173 ± 0.21,-0.145 ± 0.058,-0.271 ± 0.34,0.0906 ± 0.16,0.0506 ± 0.069,-0.104 ± 0.089,-0.154 ± 0.15
Cn1c(N2CCCCS2(=O)=O)nc(C(=O)NCc2ccc(F)cc2)c(O)c1=O,0.318 ± 0.15,0.238 ± 0.11,0.279 ± 0.16,0.138 ± 0.12,0.142 ± 0.018,0.21 ± 0.21,0.035 ± 0.05,0.0902 ± 0.079,0.107 ± 0.07,0.135 ± 0.065,0.11 ± 0.064,0.0705 ± 0.1
CC(C)(C)Cn1c(N)nc2ccc(-c3[nH]c(C(C)(C)C)nc3-c3ccc(F)cc3)nc21,-0.299 ± 0.16,-0.34 ± 0.39,-0.339 ± 0.27,-0.332 ± 0.19,0.0282 ± 0.11,-0.0734 ± 0.088,-0.106 ± 0.14,-0.164 ± 0.011,0.0653 ± 0.27,-0.1 ± 0.065,0.0433 ± 0.27,-0.126 ± 0.04
CCCCCCCCc1ccc(CCC(N)(CO)CO)cc1 [Fingolimod (FTY720) HCl],-0.08 ± 0.2,0.103 ± 0.094,-0.468 ± 0.63,-1.3 ± 0.47,0.00885 ± 0.025,0.108 ± 0.2,-0.0086 ± 0.051,-0.431 ± 0.14,-0.0541 ± 0.057,0.0707 ± 0.26,0.0214 ± 0.12,-0.225 ± 0.11
Cc1ccc(C(=O)N(CCCN)[C@@H](c2nc3cc(Cl)ccc3c(=O)n2Cc2ccccc2)C(C)C)cc1,-0.323 ± 0.17,-0.518 ± 0.37,-0.511 ± 0.3,-0.713 ± 0.41,-0.303 ± 0.12,-0.329 ± 0.14,-0.325 ± 0.092,-0.343 ± 0.066,-0.222 ± 0.073,-0.191 ± 0.083,-0.196 ± 0.06,-0.201 ± 0.13
Cc1[nH]c2ccccc2c1CCNCc1ccc(/C=C/C(=O)NO)cc1 [Panobinostat (LBH589)],0.295 ± 0.18,0.212 ± 0.15,-0.537 ± 0.2,-1 ± 0.66,-0.0896 ± 0.16,-0.0773 ± 0.012,-0.329 ± 0.091,-0.379 ± 0.039,0.00164 ± 0.068,-0.0266 ± 0.039,-0.153 ± 0.064,-0.217 ± 0.083
COc1ccccc1OCCNCC(O)COc1cccc2[nH]c3ccccc3c12 (centres undefined) [Carvedilol],0.0568 ± 0.07,-0.0141 ± 0.46,-0.151 ± 0.16,-0.242 ± 0.21,-0.0322 ± 0.045,-0.0981 ± 0.087,-0.114 ± 0.16,0.0736 ± 0.33,0.00238 ± 0.026,-0.0201 ± 0.029,0.0995 ± 0.29,-0.0533 ± 0.0041
Cc1ccccc1C(C(=O)NC1CCCCC1)N(C(=O)Cn1ccnc1C)c1cccc(F)c1 (centres undefined),0.309 ± 0.28,0.154 ± 0.26,0.281 ± 0.18,0.336 ± 0.28,0.0413 ± 0.054,0.205 ± 0.23,0.0259 ± 0.04,-0.0395 ± 0.015,0.0554 ± 0.1,0.0416 ± 0.033,0.0393 ± 0.061,-0.00739 ± 0.054
c1ccc(CNc2nc(NCc3ccccc3)c3ccccc3n2)cc1,0.119 ± 0.26,-0.0129 ± 0.13,0.00434 ± 0.12,-1.13 ± 0.74,0.0313 ± 0.15,0.25 ± 0.26,-0.103 ± 0.072,-0.448 ± 0.17,0.0969 ± 0.13,0.064 ± 0.073,-0.0475 ± 0.043,-0.296 ± 0.078
COc1ccc2c(c1)c(C1=C(c3c[nH]c4ccccc34)C(=O)NC1=O)cn2CCCN(C)C,0.0208 ± 0.3,-0.0357 ± 0.15,0.0578 ± 0.036,-0.181 ± 0.48,-0.0256 ± 0.05,-0.0144 ± 0.083,-0.032 ± 0.047,-0.0193 ± 0.14,-0.00531 ± 0.08,0.0131 ± 0.074,0.0909 ± 0.14,-0.0917 ± 0.091
CCn1c(-c2nonc2N)nc2c(C#CC(C)(C)O)ncc(OC[C@H]3CCCNC3)c21,0.129 ± 0.22,0.197 ± 0.23,-0.0268 ± 0.096,-0.182 ± 0.69,-0.0224 ± 0.053,0.126 ± 0.14,0.0823 ± 0.051,-0.266 ± 0.03,0.0445 ± 0.024,0.047 ± 0.071,0.122 ± 0.062,-0.0802 ± 0.087
CC(C)(C)c1cc(C(C)(C)C)c(NC(=O)c2c[nH]c3ccccc3c2=O)cc1O [Ivacaftor (VX-770)],0.234 ± 0.38,0.145 ± 0.36,-0.148 ± 0.29,-0.47 ± 0.19,0.0733 ± 0.052,0.17 ± 0.087,0.0173 ± 0.015,-0.314 ± 0.033,0.0992 ± 0.047,0.127 ± 0.097,0.0823 ± 0.083,-0.142 ± 0.061
O=C(/C=C/c1cccc(S(=O)(=O)Nc2ccccc2)c1)NO [Belinostat (PXD101)],-0.227 ± 0.14,-0.0555 ± 0.25,-0.782 ± 0.042,-1.12 ± 0.12,-0.057 ± 0.15,0.131 ± 0.044,-0.333 ± 0.097,-0.415 ± 0.056,0.00772 ± 0.067,0.129 ± 0.25,-0.173 ± 0.12,-0.196 ± 0.073
Cc1ccc(S(=O)(=O)Cc2nc(-c3ccc(C(=O)NCc4cccnc4)cc3)oc2C)cc1,-0.634 ± 1.3,-0.986 ± 0.98,-0.561 ± 0.67,-0.702 ± 0.83,-0.388 ± 0.12,-0.141 ± 0.31,-0.106 ± 0.29,-0.196 ± 0.23,-0.168 ± 0.15,-0.0882 ± 0.15,-0.0573 ± 0.13,-0.0631 ± 0.15
Cc1cc(OCCCS(C)(=O)=O)cc(C)c1-c1cccc(COc2ccc3c(c2)OC[C@H]3CC(=O)O)c1,0.234 ± 0.27,0.0366 ± 0.41,0.11 ± 0.21,-0.135 ± 0.45,0.263 ± 0.011,0.019 ± 0.047,0.0107 ± 0.13,-0.189 ± 0.17,0.0917 ± 0.09,0.0171 ± 0.024,-0.0352 ± 0.087,-0.14 ± 0.12
